# Results published in PubChem BioAssay AID493208 (National Center for Advancing Translational Sciences (NCATS), 2011).
# The campaign covered roughly 44,000 compounds. About 340 (0.77%) were called active. Another 5% or so got no clear call; they are omitted. Calls follow the shape of the dose curve; as a rule, active = well fitted inhibition curve with a large enough effect; inconclusive = small, poorly fitted or top-dose-only effect; inactive = flat fitted curve, though single readings scatter. The list shows a part of the results.
# Assay: Acumen qHTS Assay for Inhibitors of the mTORC1 Signaling Pathway in MEF (Tsc2-/-, p53-/-) Cells: Sytravon;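 also: plate controls were DMSO for no effect and rapamycin for full effect; nearly all actives have a fitted effect of over 50% in size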
# Details: phospho-rpS6 immunofluorescence/PI, 24 h; series mostly up to 38.3 µM; activity change, negative = inhibition: at the top concentration
# How it was run: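 Compounds act on Tsc2-/-, p53-/- fibroblasts carrying an empty vector for 24 h before fixation and dual staining for phospho-S6 and DNA (propidium iodide). Values are percentages of cells above a rapamycin-defined pS6/PI threshold.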
row,SMILES,"activity change, negative = inhibition"
1,Cc1cccc(NC(=O)CS(=O)(=O)c2cccc3nsnc23)c1,inactive: -0.229%
2,CCOc1ccc(CCNC(=O)CCCc2nnc3n(CC)c(=O)c4sccc4n23)cc1OCC,inactive: 3.43%
3,CCOc1ccc(NC(=O)CSc2nnc(-c3ccc(OCC)cc3)o2)cc1,inactive: 0.756%
4,Cc1ccc(NC(=O)Cn2c(=O)n(Cc3nc(-c4ccccc4)no3)c(=O)c3ccccc32)cc1C,inactive: -5.19%
5,COC(=O)c1ccccc1NC(=O)CSc1nc(=O)cc(N)n1-c1ccccc1,inactive: -0.256%
6,Cc1coc2cc3oc(=O)c(CC(=O)NCc4cccc(Cl)c4)c(C)c3cc12,inactive: 2.88%
7,Cc1ccc(CNC(=O)c2c(-c3ccccc3Cl)noc2C)o1,inactive: 0%
8,COc1ccc(CNC(=O)Nc2ccc3c(c2)N(C)C(=O)c2ccccc2S3)cc1OC,inactive: -10.6%
9,COc1cc(OC)c(NC(=O)CN2CCCN(Cc3ccccc3C)S2(=O)=O)cc1Cl,inactive: 2.37%
10,Cc1ccc(-n2nnnc2CNC(=O)c2ccc(F)cc2)cc1C,inactive: 0%
11,COc1ccccc1-c1nn2c(=O)cc(CN3CCN(S(=O)(=O)c4ccc(C)cc4)CC3)nc2s1,inactive: 0.295%
12,CCOC(=O)c1ccc(NC(=O)C2Cc3ccccc3C(=O)O2)cc1 (configuration not stated),inactive: -8.39%
13,Cc1cccc(-c2noc(CNC(=O)c3ccco3)n2)c1,inactive: 8.32%
14,CC(=O)Nc1ccc(C)cc1-c1nc2ccccc2n(CC(=O)c2ccc(Cl)cc2)c1=O,inactive: 5.54%
15,COC(=O)c1cc2oc3ccccc3c2n1CC(=O)Nc1cc(OC)cc(OC)c1,inactive: -0.246%
16,CC(=O)N(Cc1cccnc1)c1nc2ccc(F)cc2s1,inactive: -0.0506%
17,COc1cccc2cc(-c3cn4c(n3)sc3cc(F)ccc34)c(=O)oc12,inactive: 1.76%
18,COc1ccc(C(=O)NCC(c2cccs2)S(=O)(=O)c2ccc(F)c(C)c2)cc1 (configuration not stated),inactive: 1.12%
19,CCOc1ccccc1C(=O)N1CCN(CCc2ccccn2)CC1,inactive: -9.99%
20,Cc1ccc(C2=Nc3ccccc3N(CC(=O)Nc3ccccc3C)C(=O)C2)cc1C,inactive: 10.7%
21,Cc1ccc(CNC(=O)NC2COc3ccccc3C2)cc1 (configuration not stated),inactive: -2.53%

row,SMILES,"activity change, negative = inhibition"
1,Cc1c(Cl)cccc1NC(=O)Cn1nc(C(F)(F)F)c2c1CCC2,inactive: -17.1%
2,Cc1ccc(N2CCn3c2nc2c3c(=O)n(CCCc3ccccc3)c(=O)n2C)cc1,inactive: -4.57%
3,COc1ccc(OC)c(CNC(=O)c2ccccc2NC(=O)c2nsc3ccccc23)c1,inactive: 0%
4,Cc1cc(C)c(NC(=O)Cn2c(=O)n(CCc3ccccc3)c(=O)c3ccccc32)c(C)c1,inactive: 2.63%
5,Cc1cc(C)n(-c2nc3ccccc3nc2Nc2cccc(C(=O)NCCc3ccccc3)c2)n1,inactive: -12.2%
6,COc1ccc(CCNC(=O)c2c(C)oc3nc(C)nc(N4CCOCC4)c23)cc1OC,inactive: -2.8%
7,Cc1ccc(NC(=O)C2CCCN(S(=O)(=O)c3cccc4cccnc34)C2)c(Br)c1 (configuration not stated),inactive: 0.166%
8,Cc1onc(-c2ccccc2Cl)c1C(=O)Oc1ccc(Br)cc1,inactive: 10.2%
9,Cn1cc(S(=O)(=O)N2CCCCCC2)cc1C(=O)NCc1ccc(Cl)cc1,inactive: 3.29%
10,CC1=C(C(=O)Nc2ccccc2)C(c2cccc(O)c2)n2nc(-c3ccccc3Cl)nc2N1 (configuration not stated),inactive: 0.488%
11,CCN(c1ccc(OC)cc1)S(=O)(=O)c1nnc(NC(=O)COc2ccc(F)cc2)s1,inactive: -4.09%
12,CC(C)CC(=O)NCC(c1ccc2c(c1)OCO2)N1CCN(c2ccccc2F)CC1 (configuration not stated),inactive: -1.7%
13,Cc1cccc(-c2nc(SCC(=O)NCC3CCCO3)c3c(=O)n(C)c(=O)n(C)c3n2)c1 (configuration not stated),inactive: -8.08%
14,Cc1ccccc1N(C)C(=O)c1noc2c1COc1ccccc1-2,inactive: -1.13%
15,CCOC(=O)c1ccc(NC(=O)Nc2ccc3snnc3c2)cc1,inactive: 1.08%
16,O=C(CCn1c(=O)c2cccn2c2cccnc21)NCc1ccccc1Br,inactive: -0.283%
17,CCOc1ccc(-c2noc(CSc3nnc(-c4ccccc4)n3-c3ccccc3)n2)cc1,inactive: 2.02%
18,CCC(CC)C(=O)Nc1ccc(C(=O)OCc2cc(=O)n3nc(C4CC4)sc3n2)cc1,inactive: 2.7%
19,CCC(=O)Nc1ccc(C)cc1-c1nc2ccccc2n(C(C)C(=O)Nc2ccccc2CC)c1=O (configuration not stated),inactive: -11.7%
20,CN1C(=O)c2ccccc2Sc2ccc(NC(=O)Cc3c(F)cccc3Cl)cc21,inactive: -12%
21,Cc1ccc(-n2nc(C(=O)N3CCN(c4ccccc4F)CC3)c3c4ccccc4n(C)c3c2=O)cc1,inactive: -8.29%

row,SMILES,"activity change, negative = inhibition"
1,COc1cccc(CNC(=O)CN2N=C(c3ccc(C)cc3)CCC2=O)c1,inactive: 1.05%
2,Cc1ccc(N(C)S(=O)(=O)c2ccc3c(c2)C(C)(C)C(=O)N3C)cc1C,inactive: 8.02%
3,O=C(NCc1ccccc1Cl)c1cccn1-c1nnc(N2CCCCC2)s1,inactive: 8.04%
4,CCN(CC)CCCNC(=O)CCCn1c(=O)[nH]c2ccc(Br)cc2c1=O,inactive: 1.98%
5,CC(=O)c1ccccc1NS(=O)(=O)c1cc2c(cc1C)NC(=O)CO2,inactive: -0.516%
6,Cc1ccc(Cl)cc1N1CCN(C(=O)c2cccn2-c2nnc(N3CCCCC3)s2)CC1,inactive: 2.66%
7,COc1cc(Cl)ccc1OC(=O)c1cn(-c2ccccc2OC)c(=O)c2ccccc12,inactive: -0.418%
8,CC(C)CCNC(=O)c1ccc(Cn2c(SCC(=O)NC(C)C)nc3ccccc3c2=O)cc1,inactive: 1.59%
9,Cc1cc(NC(=O)c2ccc(-c3ccc(Br)cc3)o2)cc(-c2nc3ncccc3o2)c1O,inactive: -2.25%
10,Cc1ccc2nc(Cl)c3cc(C(=O)NCCCN4CCC(C)CC4)sc3c2c1,inactive: -13.2%
11,Cc1c(-c2ccccc2)c(=O)oc2c(CN3CCN(C)CC3)c(O)ccc12,inactive: -12.7%
12,Cc1ccc(C)c(S(=O)(=O)c2nnn3c2nc(NCc2cccs2)c2sccc23)c1,inactive: -14%
13,COc1ccc(NC(=O)Cc2csc(COc3cccc(C)c3)n2)cc1OC,inactive: -2.59%
14,CCc1ccc(-n2c(SCC(=O)NC(C)CC)nc3n[nH]c(C)c3c2=N)cc1 (configuration not stated),inactive: -0.321%
15,COc1ccc(N2CC(NC(=O)c3ccc4c(c3)OCO4)CC2=O)cc1OC (configuration not stated),inactive: -5.25%
16,COc1ccc2c(c1)c1c(c(=O)n(-c3ccccc3)c(=O)n1CC(=O)Nc1ccc(F)cc1)n2C,inactive: -0.376%
17,Cc1ccc(-c2nc(S(=O)(=O)c3ccc(Cl)cc3)c(N3CCCCC3)o2)cc1,inactive: 19.3%
18,COc1ccc(CNC(=O)Cn2nnc(-c3ccccc3F)n2)cc1,inactive: 7.36%
19,CCc1cc2c(cc3c(=O)n(CC(=O)N4CCCCC4)nc(CC)n32)s1,inactive: 0.534%
20,COc1ccc(Cl)cc1C(=O)Nc1ccc2oc(-c3ccc(C(C)(C)C)cc3)nc2c1,inactive: -1.86%
